Reference: PubChem BioAssay AID488969 (Vanderbilt High Throughput Screening Facility, 2010)
Whole data set: some 110,000 compounds, median “z-score” near -0.1, cut for the highest 2% near 2. The list shows a part of the results. Activity calls are given as the source filed them.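 Rule for the calls: active = z-score in the third read window above 3 or below -3; inactive = the rest.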

What follows are compounds tested against Metabotropic glutamate receptor 8 (Rattus norvegicus) (UniProt P70579) (assay: rat mGluR8 modulators via GIRK flux, primary screen, cell-based, thallium flux, HTS (AID 488969)). Details: HEK293 rat mGluR8, GIRK (G protein-gated inwardly rectifying potassium channel) thallium flux, FluoZin2; at 10 µM; stronger effect = higher value; submaximal glutamate (EC20) added with thallium.
UniProt P70579, sequence (P70579 whole entry, looked up): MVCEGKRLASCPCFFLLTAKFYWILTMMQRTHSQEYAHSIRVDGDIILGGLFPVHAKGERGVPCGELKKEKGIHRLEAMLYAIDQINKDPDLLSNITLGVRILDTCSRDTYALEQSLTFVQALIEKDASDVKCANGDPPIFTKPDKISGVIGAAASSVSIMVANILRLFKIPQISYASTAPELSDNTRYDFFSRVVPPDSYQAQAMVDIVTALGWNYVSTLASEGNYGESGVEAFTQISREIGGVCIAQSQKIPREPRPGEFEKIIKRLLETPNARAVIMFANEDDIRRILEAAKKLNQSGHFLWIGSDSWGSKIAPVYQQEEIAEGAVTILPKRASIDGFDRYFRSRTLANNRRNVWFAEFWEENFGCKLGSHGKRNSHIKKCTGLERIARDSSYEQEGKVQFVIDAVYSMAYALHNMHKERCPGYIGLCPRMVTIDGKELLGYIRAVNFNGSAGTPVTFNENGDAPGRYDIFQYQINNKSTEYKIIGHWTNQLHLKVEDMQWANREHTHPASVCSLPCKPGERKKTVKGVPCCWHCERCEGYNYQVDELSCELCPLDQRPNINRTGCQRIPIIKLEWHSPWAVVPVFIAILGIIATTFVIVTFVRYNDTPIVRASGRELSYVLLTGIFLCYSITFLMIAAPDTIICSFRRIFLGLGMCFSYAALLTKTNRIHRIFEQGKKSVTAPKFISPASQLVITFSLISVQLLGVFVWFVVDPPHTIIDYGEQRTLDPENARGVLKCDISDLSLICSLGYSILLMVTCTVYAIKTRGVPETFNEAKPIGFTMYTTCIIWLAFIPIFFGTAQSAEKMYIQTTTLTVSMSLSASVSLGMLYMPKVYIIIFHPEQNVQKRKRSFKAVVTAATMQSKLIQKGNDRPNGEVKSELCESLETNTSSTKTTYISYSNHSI
For CC1CCc2c(sc3ncnc(SCC(=O)c4ccccc4)c23)C1 (centres undefined), the z-score was 0.381. For NC(=O)c1ccc(Cc2ncc(C(F)(F)F)cc2Cl)s1, the z-score was active: 4.24. Compound COc1ccc(N(C(=O)c2ccccc2OC)C2C=CS(=O)(=O)C2)c(OC)c1 (centres undefined) has a z-score of -0.153. CC(C)n1c(NCc2ccc(N(C)C)cc2)nc2ccccc21 showed a z-score of -0.853. For O=C(CSc1ncccn1)NC(=O)NCc1ccccc1, the z-score was 0.0641. Cc1cc(C)n(S(=O)(=O)c2cccc(Cl)c2Cl)n1 showed a z-score of 0.0791. CC1(N2CCCCC2)C(=O)c2ccccc2C1=O was tested, and the z-score was 0.0349. Work on COc1cc(C(=O)N2CCC(n3c(C)nc4cc(F)ccc43)CC2)cc(OC)c1OC yielded a z-score of 0.139. Compound CC1=C(c2ccccc2)[N+](=O)C2(CCCC2)N1[O-] has a z-score of 0.067. CCOC(=O)c1ccc(NS(=O)(=O)c2cc(-c3nnnn3CC)ccc2OC)cc1 showed a z-score of 0.274. Work on O=C(CCN1C(=O)c2ccccc2C1=O)C1=NN[C@@H]2C(=O)N(c3cccc(Cl)c3)C(=O)[C@H]12 yielded a z-score of -0.513. Compound CCOc1cc(/C=N/NC(=O)C(C)Sc2ccccn2)ccc1O (centres undefined) has a z-score of -0.298. With CCN(CC)c1nc(-c2ccc(Cl)cc2)cc(C(F)(F)F)c1C#N the z-score was -0.142. CN1CCN(Cc2c(O)ccc3occ(C(=O)c4ccccc4)c23)CC1 showed a z-score of -0.931. COC(=O)c1ccc(N2C(=O)CC(N(C)CCc3ccc(OC)c(OC)c3)C2=O)cc1 (centres undefined) gave a z-score of 0.475. For COc1ccccc1Nc1nc(N)nc(CSc2ncccn2)n1, the z-score was -0.305. CCc1ccc(CNC(=O)c2cc3c(C)nc4ccccc4c3o2)cc1 showed a z-score of -0.656. O=C1NCN(c2ccccc2)C12CCN(c1nnnn1-c1ccccc1)CC2 showed a z-score of -0.747. Compound CCn1c(SCc2ccc(OC)cc2)nnc1-c1ccncc1 has a z-score of 0.857. Work on CNc1ccccc1-n1ccc(-c2ccccc2)n1 yielded a z-score of 1.11. Compound COc1ccccc1NC(=O)C(=N\O)/C(C)=N/O has a z-score of -0.28. Work on Cc1ccc(S(=O)(=O)NC(=O)Nc2ccc(F)cc2)cc1 yielded a z-score of 0.0553. Work on COC(=O)NNC(=O)c1cccc(C)c1 yielded a z-score of -0.067. In the case of CSc1nc(-c2ccco2)nn1C(=O)c1ccc(Cl)cc1, the z-score is reported as -0.367. Work on COCc1c(C#N)c(NCCc2ccc(F)cc2)nc(C)c1[N+](=O)[O-] yielded a z-score of -0.47. OC1CCCCC1Sc1nc2ccccc2s1 (centres undefined) gave a z-score of -0.475. In the case of COc1ccc(C2Nc3ccccc3C(=O)N2c2ccc(C)cc2)cc1Cn1nc(C)c([N+](=O)[O-])c1C (centres undefined), the z-score is reported as -0.318. CCc1cc(=O)oc2c(C)c(OS(C)(=O)=O)ccc12 gave a z-score of 0.233. Work on COc1cc(C(=O)OC(C)C(=O)Nc2ccc3c(c2)OCO3)ccc1OCc1c(C)noc1C (centres undefined) yielded a z-score of 0.154. COc1ccc(/C=N/n2cnnc2SCc2ccccc2)cc1 gave a z-score of -0.759. In the case of Cn1c(=O)c2c(nc(OCc3cccnc3)n2Cc2ccccc2)n(C)c1=O, the z-score is reported as -0.843. With COc1ccccc1CNC(=O)c1ccc(CS(=O)(=O)c2ccccc2OC)o1 the z-score was -0.585. With O=C(c1ccccc1Br)N1CCN(c2ccccc2)CC1 the z-score was -1.28. Compound O=C(O)C1C2C=CC(C2)C1C(=O)OCc1ccccc1 (centres undefined) has a z-score of -0.273. In the case of COc1ccc(/C=C2/SC(=O)N(CCC(=O)Nc3ccccc3)C2=O)cc1OC, the z-score is reported as 0.629. With Cc1ccc(-n2nnnc2-c2cnc3cc4c(cc3c2C)OCO4)cc1 the z-score was -0.169. For Cc1ccc(C)c(S(=O)(=O)Nc2nc(C)c(C(=O)Nc3ccccc3)s2)c1, the z-score was -0.565. Work on CC(C(=O)Nc1ccccc1-c1ccccc1)N1CCN(S(=O)(=O)c2ccccc2)CC1 (centres undefined) yielded a z-score of -0.2. COc1ccccc1NC(=O)c1ccc(NC(=O)COC(=O)CCC2CCCC2)cc1 showed a z-score of -0.644. With COc1cc(C(c2c(C)[nH][nH]c2=O)c2c(C)[nH][nH]c2=O)ccc1OS(=O)(=O)c1ccc(C)cc1 the z-score was 0.123. With CCOC(=O)C1=C(Nc2ccc(Br)cc2)CC(C)(O)C(C(=O)OCC)C1c1ccccc1 (centres undefined) the z-score was -0.148. In the case of Cc1occc1C(=O)Nc1cc(C(C)(C)C)on1, the z-score is reported as 0.17. COC(=O)c1cc(C#N)c(Oc2ccccc2OC)nc1C showed a z-score of -0.0789. NC(=O)C1CCN(C2CC(=O)N(Cc3cccs3)C2=O)CC1 (centres undefined) was tested, and the z-score was -0.0147. COc1cc(/C=C/C(=O)NC(C)C)ccc1OCc1ccccc1 was tested, and the z-score was -0.409. With COc1ccc(NC(=S)NC(NC(C)=O)C(Cl)(Cl)Cl)c([N+](=O)[O-])c1 (centres undefined) the z-score was -0.504. Work on CSC(=NNC(=O)c1ccc(O)cc1)SC yielded a z-score of -0.329. Work on COc1ccc(NC(=O)CCNC(C)=O)cc1NS(=O)(=O)c1ccc(F)cc1 yielded a z-score of -0.467. Compound O=C(Nc1ccccc1)N(Cc1ccc2c(c1)OCO2)Cc1nc2ccccc2c(=O)[nH]1 has a z-score of -0.179. For COc1ccc(OC)c(S(=O)(=O)N2Cc3ccccc3CC2C(=O)Nc2nccs2)c1 (centres undefined), the z-score was 0.00786. Cc1ccc(CN/C=C/C(=O)c2ccc(Br)cc2)cc1 was tested, and the z-score was -0.291. With CCN(CC)S(=O)(=O)c1cc(NC(=O)COc2ccc(C#N)cc2OC)ccc1C the z-score was -0.129. In the case of O=C(NC1CCCCC1)N1CCSC1=Nc1ccccc1, the z-score is reported as -0.214. COCCOC(=O)C1=C(C)NC2=C(C(=O)CCC2)C1c1ccc(N(C)C)cc1 (centres undefined) showed a z-score of 0.0399. O=S(=O)(NCc1ccccc1)c1ccc(S(=O)(=O)N(Cc2cccs2)CC2CCCO2)cc1 (centres undefined) gave a z-score of 0.312. NC(=O)C1CCN(C(=O)c2cc(S(=O)(=O)N3CCOCC3)c(Cl)cc2Cl)CC1 gave a z-score of -0.0618. For O=C(NC1CCSC1=O)c1ccc(Cl)cc1 (centres undefined), the z-score was 0.142. Work on Cc1cc(C(=O)CN2C(=O)NC3(CCCC3)C2=O)c(C)n1-c1ccc2c(c1)OCO2 yielded a z-score of -0.531. For CCN(CCNC(=O)c1ccc2nc(-c3ccccc3NC(C)=O)c(=O)[nH]c2c1)c1ccccc1, the z-score was -0.113. With Cc1cc(C)nc(N(C#N)S(=O)(=O)c2ccccc2Cl)n1 the z-score was -0.133. CCN(CCNC(=O)CS(=O)(=O)Cc1nc(-c2cccc(OC)c2)oc1C)c1ccccc1 showed a z-score of 0.638. For COc1ccccc1-c1nc(C#N)c(N2CCC(Cc3ccccc3)CC2)o1, the z-score was -1.19. With O=c1[nH]c2ccccc2nc1/C=C(\O)C1CC1 the z-score was -0.262. In the case of S=C(Nc1ccc(Cl)cc1Cl)N1CCCCC1, the z-score is reported as 0.13. For C/[N+]([O-])=C\c1coc2ccccc2c1=O, the z-score was -0.173. For CCCCNc1c([N+](=O)[O-])cc(C)cc1[N+](=O)[O-], the z-score was 0.0329. Cc1ccc(C)c2[nH]c(=O)c(CCNC(=O)CC(C)(C)C)cc12 showed a z-score of -0.129. Work on O=[N+]([O-])c1cccc(N=NN(CCO)c2cccc([N+](=O)[O-])c2)c1 yielded a z-score of 0.184. With CCC(=O)c1ccc(OCC(O)Cn2c(C)nc3ccccc32)cc1 (centres undefined) the z-score was -0.247.
